# Assay results: the supplement of paper PMC4967469
# pIC50: −log10 of the molar value. Lines with a small IC50 respond at low doses; a limit (>, <) means that the fit lies beyond the doses tested. AUC is the area under the same curve over the 256-fold range up to the top dose, as a fraction; values near 1 show little effect. For some of these results: Where the top dose is marked as inferred, it was derived from the fitted curves, not read from the paper. For some of these results: Where an entry number is given, a second screen of the drug exists; the two often differ.
# How the values were obtained:
# Experiment in all cases: Viability of human cancer cell lines after 72 h of drug (GDSC screen)
# SNX-2112 = compound: CC1(C)CC(=O)c2c(C(F)(F)F)nn(-c3ccc(C(N)=O)c(N[C@H]4CC[C@H](O)CC4)c3)c2C1 [SNX-2112]; details: top dose 2.56 µM
# Procedure: (§1)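 Human cancer cell lines in 384-well plates, medium with 10% serum, drug for 72 h over a 256-fold dose range (nine 2-fold or five 4-fold steps up to the top dose). Adherent lines were fixed and stained with the nucleic acid dye Syto60, suspension lines read with resazurin; signal relative to control wells, capped at 0 and 100%. One two-parameter sigmoid per drug and line, fitted in a mixed model over all curves with the slope shared within a line.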
# Vinblastine = compound: CC[C@]1(O)C[C@@H]2CN(CCc3c([nH]c4ccccc34)[C@@](C(=O)OC)(c3cc4c(cc3OC)N(C)[C@H]3[C@@](O)(C(=O)OC)[C@H](OC(C)=O)[C@]5(CC)C=CCN6CC[C@]43[C@@H]65)C2)C1 [Vinblastine]; details: top dose 0.1 µM; top dose inferred
# Procedure: as §1
# Afatinib = compound: CN(C)C/C=C/C(=O)Nc1cc2c(Nc3ccc(F)c(Cl)c3)ncnc2cc1O[C@H]1CCOC1 [Afatinib]
# Procedure: as §1
# PF-562271 = compound: CN(c1ncccc1CNc1nc(Nc2ccc3c(c2)CC(=O)N3)ncc1C(F)(F)F)S(C)(=O)=O [PF-562271]; details: top dose 2.56 µM; top dose inferred
# Procedure: as §1
# XMD13-2 = compound: O=C(NC1CC1)c1cccc(-c2ccc3c(NC(=O)C4CC4)n[nH]c3c2)c1 [XMD13-2]; details: top dose 10.24 µM; top dose inferred
# Procedure: as §1
# [1] = top dose 0.5 µM, screen: GDSC drug entry 1032
# [2] = top dose 10 µM, screen: GDSC drug entry 1377, top dose inferred
Cell Line,AUC (SNX-2112),pIC50 (SNX-2112),AUC (Vinblastine),pIC50 (Vinblastine),AUC (Afatinib; [1]),pIC50 (Afatinib; [1]),AUC (Afatinib; [2]),pIC50 (Afatinib; [2]),AUC (PF-562271),pIC50 (PF-562271),AUC (XMD13-2),pIC50 (XMD13-2)
"SUIT-2 (pancreas, adherent)",0.33,7.28,0.828,7.18,0.938,< 6.30,0.958,< 5.00,0.919,< 5.59,0.952,< 4.99
"SUP-B15 (lymphoblastic leukaemia, suspension)",0.432,6.98,0.547,8.08,0.986,< 6.30,–,–,0.893,< 5.59,0.833,5.21
"SUP-HD1 (Hodgkin lymphoma, suspension)",0.324,7.28,0.507,8.19,0.979,< 6.30,0.984,< 5.00,0.903,< 5.59,0.79,5.37
"SUP-M2 (anaplastic large cell lymphoma, suspension)",0.237,7.45,0.152,9.10,0.993,< 6.30,0.993,< 5.00,0.943,< 5.59,0.647,5.83
"SUP-T1 (T-cell lymphoblastic leukaemia, suspension)",0.332,7.24,0.863,7.13,0.989,< 6.30,0.989,< 5.00,0.937,< 5.59,0.873,5.08
"SW13 (adrenal gland, adherent)",0.986,< 5.59,0.501,8.20,0.756,6.76,0.631,5.84,0.923,< 5.59,0.983,< 4.99
"SW48 (large intestine, adherent)",0.296,7.37,0.495,8.22,0.815,6.57,0.839,5.17,0.809,5.88,0.932,< 4.99
"SW626 (ovary, adherent)",0.685,6.23,0.69,7.63,0.966,< 6.30,0.97,< 5.00,0.926,< 5.59,0.885,< 4.99
"SW684 (fibrosarcoma, adherent)",0.982,< 5.59,0.797,7.12,0.95,< 6.30,0.978,< 5.00,0.882,< 5.59,0.976,< 4.99
"SW756 (cervix, adherent)",0.928,< 5.59,0.636,7.80,0.962,< 6.30,0.983,< 5.00,0.972,< 5.59,0.961,< 4.99
"SW780 (bladder, adherent)",0.969,< 5.59,0.385,8.53,0.973,< 6.30,0.887,< 5.00,0.879,< 5.59,0.973,< 4.99
"SW948 (large intestine, adherent)",0.677,6.20,0.822,7.01,0.982,< 6.30,0.95,< 5.00,0.946,< 5.59,0.919,< 4.99
"SW954 (urogenital system, adherent)",0.281,7.42,0.529,8.12,0.846,6.43,0.82,5.23,0.83,5.79,0.855,5.08
"SW962 (urogenital system, adherent)",0.669,6.27,0.649,7.74,0.942,< 6.30,0.955,< 5.00,0.947,< 5.59,0.959,< 4.99
"SW982 (soft tissue, adherent)",0.381,7.13,0.436,8.38,0.985,< 6.30,0.959,< 5.00,0.547,6.67,0.967,< 4.99
"SW1417 (large intestine, adherent)",0.868,< 5.59,0.928,< 7.00,0.954,< 6.30,0.941,< 5.00,0.976,< 5.59,0.964,< 4.99
"SW1573 (lung adenocarcinoma, adherent)",0.978,< 5.59,0.761,7.33,0.97,< 6.30,0.938,< 5.00,0.913,< 5.59,0.973,< 4.99
"SW1710 (bladder, adherent)",0.633,6.42,0.516,8.16,0.965,< 6.30,0.887,< 5.00,0.833,5.76,0.924,< 4.99
"SW1783 (glioma, adherent)",0.546,6.68,0.85,7.19,0.991,< 6.30,0.968,< 5.00,0.987,< 5.59,0.988,< 4.99
"SW1990 (pancreas, adherent)",0.985,< 5.59,0.774,7.34,0.971,< 6.30,0.829,5.11,0.927,< 5.59,0.978,< 4.99
"Saos-2 (osteosarcoma, adherent)",0.981,< 5.59,0.662,7.67,0.971,< 6.30,0.938,< 5.00,0.949,< 5.59,0.981,< 4.99
"SiHa (cervix, adherent)",0.984,< 5.59,0.846,7.04,0.986,< 6.30,0.977,< 5.00,0.98,< 5.59,0.987,< 4.99
